The whole screen tested about 420,000 compounds, of which about 50,000 (12%) were called active. Inconclusive means that the source gave no clear call. Such entries were picked first, then a sample of the others. Calls come from the whole dose curve; as a rule, active = well fitted inhibition curve with a large enough effect; inconclusive = small, poorly fitted or top-dose-only effect; inactive = flat fitted curve, though single readings scatter. No potency is given beside an inconclusive call; the fits are too rough.
Test: qHTS for Inhibitors of human tyrosyl-DNA phosphodiesterase 1 (TDP1): qHTS in cells in presence of CPT; note: nearly all actives have a fitted effect of over 55% in size
Settings: chicken DT40 Tdp1-/-;hTDP1 cells + 20 nM CPT, ATP luminescence, 48 h; series mostly up to 46.2 µM
Procedure, shortened: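 Chicken DT40 Tdp1-/- cells stably complemented with human TDP1 were seeded at 400 cells/well in medium containing 20 nM camptothecin, exposed to pin-transferred compounds, and grown at 37 °C for at least 48 hr. Viability was read as ATP luminescence.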
Potency is the fitted concentration of half-maximal effect; tags give direction and shape of the fitted curve.

Row | Structure (SMILES) | Potency
1 | COc1ccc(-n2c(/C=C/c3cccc4ccccc34)nc3ccccc3c2=O)cc1OC | inconclusive [inhibitor, single point]
2 | CC(C)=CCC/C(C)=C/CNC(=O)C[C@H]1C[C@H](C(=O)N2CCOCC2)[C@@]2(C)c3[nH]c4cc(-c5ccco5)ccc4c3CCN2C1=O | active: 20.6 µM
3 | Cc1ccc(NC(=O)c2ccc(NCCN)c([N+](=O)[O-])c2)cc1 | inconclusive [inhibitor, partial curve]
4 | Cc1ccc([C@H]2N[C@]3(CCCN(Cc4ccc(Cl)cc4)C3=O)[C@H]3C(=O)N(Cc4ccccc4)C(=O)[C@@H]23)cc1 | inconclusive [inhibitor, single point]
5 | Cc1ccc(S(C)(=O)=O)cc1C(=O)Nc1ccc(S(=O)(=O)Nc2nccs2)cc1 | inactive
6 | Cc1ccc(C(c2nnnn2CCC(C)C)N2CCN(C)CC2)cc1 (stereo not drawn) | inactive
7 | Cc1ccc(CNC(=O)CSCc2ccccc2C)cc1 | inconclusive [inhibitor, single point]
8 | CCCn1c(SCc2nc3sc(C)c(C)c3c(=O)[nH]2)nc2ccccc2c1=O | inconclusive [inhibitor, partial curve]
9 | C#CCCCCCCCCCCCC(O)CC(O)COC(C)=O (stereo not drawn) | inconclusive [inhibitor, full curve, poor fit]
10 | CNc1nc(-c2ccccc2)nnc1C(F)(F)F | inactive
11 | Cc1ccc(S(=O)(=O)NCCS(=O)(=O)N2CCN(c3ccc(F)cc3)CC2)cc1 | inconclusive [inhibitor, single point]
12 | CCOc1ccc(C2C(=O)N(C3CCCCCC3)CC(=O)N2Cc2ccc(C)cc2)cc1OC (stereo not drawn) | active: 23.1 µM
13 | CCOCCCNC(=S)N1CCC(NC(=O)c2ccco2)CC1 | inactive
14 | CSc1sc(C(=O)NCC2CC2)cc1S(=O)(=O)C(C)C | inactive
15 | CCNC(=S)Nc1ccc(C)c(S(=O)(=O)Nc2ccccc2OC)c1 | inconclusive [inhibitor, partial curve, poor fit]
16 | CCN1CCN(Cc2ccc(NC(=O)Nc3ccccc3Cl)cc2)CC1 | inconclusive [inhibitor, single point]
17 | CN(C)c1nc(-c2ccc([N+](=O)[O-])cc2)cs1 | inconclusive [inhibitor, single point]
18 | Cc1cccc(N(CC(=O)NCCc2ccccc2)S(=O)(=O)c2ccccc2)c1C | active: 16.4 µM
19 | COc1ccc(-c2nc(Cn3c(SCc4ccc(C)cc4)nc4ccncc43)c(C)o2)cc1OC | inconclusive [inhibitor, single point]
20 | Cc1ccc(CNC(=O)c2ccc(Cl)c(S(N)(=O)=O)c2)n1C | inactive
21 | COc1cc(C)c(S(=O)(=O)NCc2cccs2)cc1C | inactive
22 | Cn1cnc(S(=O)(=O)Nc2ccc3c(c2)OCCO3)c1 | inactive
23 | COc1ccc(/C(C)=N/NC(=O)c2ccc(NS(=O)(=O)c3cccs3)cc2)cc1 | inconclusive [inhibitor, partial curve, poor fit]
24 | COc1ccc(C(=O)c2ccccc2)c(O)c1 | inconclusive [inhibitor, single point]
25 | COc1ccc2c(C)c(CCC(=O)NCc3cccc(Cl)c3)c(=O)oc2c1 | inconclusive [inhibitor, partial curve, poor fit]

Row | Structure (SMILES) | Potency
26 | Cc1cc(C(=O)NC2CC(C)(C)Cc3c2cnn3-c2ccccc2C)c(C)o1 (stereo not drawn) | inconclusive [inhibitor, single point]
27 | CCOC(=O)C1=C(COC(=O)/C=C/c2ccc(O)c(OC)c2)NC(=O)NC1C (stereo not drawn) | inconclusive [inhibitor, single point]
28 | Cc1cc(C)n2nc3nc4c(cc3c2n1)CCCC4 | inactive
29 | COc1cccc(/C=C2\CCC(C3CCCC3)C2=O)c1OC (stereo not drawn) | inconclusive [inhibitor, partial curve, poor fit]
30 | CCOC(=O)C1CCCN(S(=O)(=O)c2cnc(Cl)c(Br)c2)C1 (stereo not drawn) | inconclusive [inhibitor, single point]
31 | C[C@@]12C(=O)N(c3ccccc3)C(=O)N1[C@@H]1c3ccccc3OC[C@@H]1[C@H]2c1ccccc1 | active: 16.4 µM
32 | C/C(=C\c1ccccc1)C(=O)Nc1nccs1 | inactive
33 | O=C(Nc1cccc(S(=O)(=O)N2CCOCC2)c1)c1ccc2c(=O)n3c(nc2c1)CCCCC3 | active: 13 µM
34 | COc1cccc(/C=N/Nc2ncnc3scc(-c4ccccc4)c23)c1OC | inconclusive [inhibitor, single point]
35 | Cc1ccc(S(=O)(=O)N2CCN(S(=O)(=O)c3ccccc3)C2c2ccc(N(C)C)cc2)cc1 (stereo not drawn) | active: 16.4 µM
36 | CC(C)(CNS(=O)(=O)c1cccs1)N1CCOCC1 | inactive
37 | CCc1ccc2c(c1)NC(=O)C2(C)Cc1ccc(C(F)(F)F)o1 (stereo not drawn) | active: 23.1 µM
38 | CC(C)c1ccc(C2C(C(=O)c3ccco3)=C(O)C(=O)N2CC2CCCO2)cc1 (stereo not drawn) | active: 20.6 µM
39 | COc1cccc(/C=C2/Sc3ccc(C(=O)NCCN4CCCCCC4)cc3NC2=O)c1 | inconclusive [inhibitor, single point]
40 | CCCOC(=O)c1ccc(OCC(O)Cn2c(C)nc3ccccc32)cc1 (stereo not drawn) | active: 2.59 µM
41 | Cc1cccc(N(C(=O)CS(=O)CC(=O)Nc2ccc3c(c2)OCO3)C(C)C(=O)NC2CCCC2)c1C (stereo not drawn) | inactive
42 | COc1ccc(CNc2ncnc3nc[nH]c23)cc1 | active: 14.1 µM
43 | N#Cc1ccccc1OCC(=O)NCc1ccccc1CN1CCCC1 | inactive
44 | CCOC(=O)C1CCCN(C(=O)c2[nH]c(C(F)(F)F)nc2-c2ccccc2)C1 (stereo not drawn) | inactive
45 | CC/C(O)=C1\C(=O)CC(C)(C)CC1=NCCc1nc2ccccc2[nH]1 | active: 23.1 µM
46 | CN=c1scc(-c2ccc(F)cc2)n1/N=C/c1ccc(O)c(O)c1 | active: 1.16 µM
47 | CCC(C)NC(=O)COC(=O)c1ccc(Cl)cc1O (stereo not drawn) | inactive
48 | O=C(c1[nH]ncc1-c1ccc(Cl)cc1)C1CO1 (stereo not drawn) | active: 1.03 µM
49 | O=C(NCC1CCCO1)c1ccc2c(c1)N(Cc1ccccc1)C(=O)CS2=O (stereo not drawn) | active: 14.6 µM
50 | COCc1nn2c(N)c(-c3ccccc3)cnc2c1-c1ccccc1 | inactive

Row | Structure (SMILES) | Potency
51 | O=C1CC(N2CCOCC2)C(=O)N1Cc1ccc(N2CCCC2=O)cc1 (stereo not drawn) | inactive
52 | COc1ccc([C@H]2C[C@H](O)[C@@H](n3cc(C4CC4)nn3)CN2C(=O)C2CCCCC2)cc1 | inactive
53 | Cc1ccccc1N(CC(=O)N1CCOCC1)S(C)(=O)=O | inactive
54 | O=C(NN=C1CCCCCC1)c1ccc2c(c1)OCO2 | inactive
55 | COC(=O)c1sccc1NC(=O)Cc1ccc(OC)cc1 | inconclusive [inhibitor, single point]
56 | O=c1[nH]nc(-c2ccc(F)cc2)cc1Cc1ccc(F)cc1 | inconclusive [inhibitor, single point]
57 | Cc1ccc(S(=O)(=O)N2CCCCC2)cc1NC(=O)CNc1ccc(C(F)(F)F)cc1 | inconclusive [inhibitor, single point]
58 | CN(C(=O)c1ccc(NC(=O)Cc2cccc(NC(=O)C3CCN(C(=O)C4CCCCC4)CC3)c2)cc1)C1CC1 | inactive
59 | CCc1ccc(CN2CCC(n3nccc3NC(=O)c3cccc(F)c3)CC2)cc1 | inconclusive [inhibitor, single point]
60 | Cc1ccc(NC(=O)c2c3c(nc4ccccc24)CCC3)cc1S(=O)(=O)N(C)C | active: 16.4 µM
61 | CCC(CO)Nc1ncc([N+](=O)[O-])cc1C#N (stereo not drawn) | inactive
62 | O=C(Nc1ccc(C(=O)O)cc1)/C(=C\C=C\c1ccccc1)NC(=O)c1ccc(Br)cc1 | inactive
63 | CCOC(=O)c1c(NC(C)=O)c2c3c(sc2n1Cc1c(C)cc(C)cc1C)CCCC3 | inconclusive [inhibitor, single point]
64 | Cn1cc(CN2C[C@]3(C)C[C@H]2CC(C)(C)C3)c(-c2ccc3c(c2)OCCO3)n1 | inconclusive [inhibitor, single point]
65 | COc1cc(CCN(C(=O)c2cc3ccccc3[nH]2)C(c2ccccn2)c2nc3ccccc3[nH]2)cc(OC)c1 (stereo not drawn) | inconclusive [inhibitor, single point]
66 | COc1ccc(Cn2ccnc2SCC(=O)Nc2ccc3c(c2)OCCO3)cc1 | inconclusive [inhibitor, single point]
67 | COC(=O)[C@@]12C[C@@H](CC(=O)NCC3CCCCC3)C(=O)N(CCc3ccc(OC)c(OC)c3)C1=CCC(C)(C)C2 | inconclusive [inhibitor, single point]
68 | Cc1ccc2c(c1)N(CC(=O)Nc1ccccc1C(F)(F)F)C(=O)c1cccnc1O2 | inconclusive [inhibitor, partial curve]
69 | Cc1cc(C(=O)NCC2COc3ccccc3O2)c2ccccc2n1 (stereo not drawn) | inconclusive [inhibitor, single point]
70 | CCOc1ccc(NC(=O)CSc2nc3c(c(=O)n2C)SC(C)C3)cc1 (stereo not drawn) | active: 16.4 µM
71 | CCN1CCCC1CNC(=O)c1ccc(Sc2ccccc2Cl)c([N+](=O)[O-])c1 (stereo not drawn) | inconclusive [inhibitor, single point]
72 | COC(=O)c1ccccc1NC(=O)C(C)n1nc(C)c2c(C)n(-c3ccccc3)nc2c1=O (stereo not drawn) | inconclusive [inhibitor, single point]
73 | O=C(O)c1ccc(NC(=S)NC(NC(=O)c2ccco2)C(Cl)(Cl)Cl)cc1 (stereo not drawn) | inactive

Reference: PubChem BioAssay AID686979 (National Center for Advancing Translational Sciences (NCATS), 2013)
